ChEMBL document CHEMBL1201862, “PubChem BioAssay data set” (2004)

Each compound was assayed on NCI-H322M (assay: inhibition of tumour cell growth, NCI panel, 48 h).

Row | SMILES | GI50
1 | NP(=O)(Oc1c2occc2cc2ccc(=O)oc12)N(CCCl)CCCl (centres undefined) | inactive: > 100 µM
2 | CN1CCN(c2ccc3nc(-c4cc(O)c5c(nc(CO)n5C)c4O)[nH]c3n2)CC1 | inactive: 37.1 µM
3 | COc1cc2cc(C(=O)N3CC(CCl)c4c3cc(N)c3ccccc43)[nH]c2cc1OCCN(C)C (centres undefined) | active: < 0.005 µM
4 | O=C(N/N=C/c1ccc(Cl)cc1)c1cc(I)cc(I)c1O | inactive: > 100 µM
5 | O=c1[nH]c(=O)n(CCOc2ccccc2)cc1Nc1ccccc1 | inactive: > 100 µM
6 | O=C(O/N=C1/CCC/C1=C\c1ccccc1)c1ccccc1 | inactive: > 100 µM
7 | COC(=O)c1c(O)ccc2c1c1c(n2Cc2ccccn2)C(=O)c2ccccc2C1=O | inactive: 36.6 µM
8 | CCOC(=O)CN1C(=O)NC(C)(c2ccccc2)C1=O (centres undefined) | inactive: > 100 µM
9 | C=C1CC(C)(c2ccc(Nc3nc4ccccc4c4occc34)cc2)OC1=O (centres undefined) | inactive: 18.8 µM
10 | CN1CCC(CN2c3ccccc3Sc3ccccc32)CC1 | inactive: 14.8 µM
11 | COC1=C(Br)[C@H](O)[C@@]2(C=C1Br)CC(C(=O)NCCCOc1c(Br)cc(C(O)CNC(C)=O)cc1Br)=NO2 (some centres undefined) [APLYSINAMISINE III] | inactive: > 10 µM
12 | Cc1cc(Br)ccc1NC1=CC(=O)C(=O)c2ccccc21 | inactive: 59.7 µM
13 | CCOC(=O)C(=O)/C(=C\NC(=S)Nc1ccccc1Cl)C(=O)OCC | inactive: > 100 µM
14 | O=c1c(Cc2ccccc2)c(O)cc2n1CCC2 | inactive: > 100 µM
15 | O=[N+]([O-])c1ccc(NS(=O)(=O)C(F)(F)F)cc1 | inactive: > 100 µM
16 | CC(=O)Nc1ccc(-c2nnc(SCC(=O)Nc3ccc(C)cc3)o2)cc1 | inactive: 30.5 µM
17 | C[C@]12O[C@@]3(C)O[C@@]3(C)[C@]3(C)O[C@]3(C)[C@@]1(C)O2 | inactive: > 100 µM
18 | CCOP(=O)(OCC)/C(C#N)=C/c1ccnc2ccccc12 | inactive: 30.8 µM
19 | O=C(c1ccccc1)n1c(Cc2ccccc2)nc2cc(C34CC5CC(CC(C5)C3)C4)ccc21 | inactive: > 100 µM
20 | CCOC(=O)C1C(c2ccccc2)C2(C#N)C(=N)OC1(C)C2(C#N)C#N (centres undefined) | inactive: 17.3 µM
21 | C=C(C)C(=O)OC1C[C@H](COC(C)=O)C2CC=C(CO)C2C2OC(=O)C(=C)[C@H]12 (some centres undefined) | inactive: > 100 µM
22 | C=C1[C@@H]2CCC(C)(C)[C@H]1CCC(=O)[C@@H]2C(=O)OC | inactive: > 100 µM
23 | COC(=O)CCC(=O)NC1=C(Nc2ccccc2)C(=O)c2ccccc2C1=O | inactive: 17.5 µM
24 | CCOC(=O)CNC(=O)NC12CC3CC(CC(C3)C1)C2 | inactive: 275 µM

Row | SMILES | GI50
25 | CN(C)CCCN1c2ccccc2CCc2cccc([N+](=O)[O-])c21 | inactive: 24.2 µM
26 | Nc1ncc2c(n1)-c1ccccc1OC2NC1CC1 (centres undefined) | inactive: > 100 µM
27 | CCCCNC(=S)N/C=C1\C(=O)Oc2ccccc2C1=O | inactive: 94 µM
28 | CN1CCC(n2[nH]c(-c3ccccc3)c(Cc3ccccc3)c2=O)CC1 [BENZPIPERYLON] | inactive: > 100 µM
29 | C=C(CN(C)C)C(=O)c1ccc(C(=O)C(=C)CN(C)C)cc1 | inactive: > 100 µM
30 | CC1=C(C(=O)Nc2ccc([N+](=O)[O-])cc2)C(c2ccccc2F)C(C(=O)Nc2ccc([N+](=O)[O-])cc2)=C(C)N1 | inactive: 18 µM
31 | COc1ccc(/C=C2\CC3C4CC=C5C[C@@H](O)CC[C@]5(C)C4CC[C@]3(C)C2=O)cc1OC (some centres undefined) | inactive: > 100 µM
32 | O=C(OCc1ccccc1)C(Cc1ccccc1)N(Cc1ccccc1)Cc1ccccc1 (centres undefined) | inactive: > 100 µM
33 | O=C1CC(c2ccccc2)Oc2ccccc21 (centres undefined) [FLAVANONE] | inactive: 93.3 µM
34 | Cc1ccc(-c2nc3c(C(=O)NCCN(C)C)cccc3[nH]2)cc1 | inactive: 14.9 µM
35 | COC(=O)C(=O)C(C(=O)C(=O)Nc1ccc(Cl)c(Cl)c1)c1nc2ccc(C(=O)c3ccccc3)cc2nc1O (centres undefined) | inactive: 66.4 µM
36 | Cc1ccc(/C=C2\NC(=S)N(CN3CCCCC3)C2=O)cc1 | inactive: > 100 µM
37 | O=c1oc2c/c(=C\c3ccccn3)c(=O)c3cccc1c3-2 | inactive: > 100 µM
38 | O=C(CC1(O)C(=O)Nc2ccc(Br)cc21)c1cccc([N+](=O)[O-])c1 (centres undefined) | inactive: 63.7 µM
39 | CCOC(=O)c1oc2c(OC)cc(Cl)c3c2c1CCC3 | inactive: > 100 µM
40 | CCc1c[n+]([O-])c(C)cc1[N+](=O)[O-] | inactive: 30.1 µM
41 | O=C(NCCCCCCNC(=O)n1cc(F)c(=O)[nH]c1=O)NCCCOCCOCCOCCOCCOCCOCCOCCOCCOCCOCCOCCOCCOCCOCCOCCOCCOCCOCCOCCOCCOCCCNC(=O)C(O)C(O)C(O)C(O)CO (centres undefined) | inactive: > 63 µM
42 | CC1=NN(c2nc(N)nc(/C(C#N)=C\c3ccc(-c4ccc([N+](=O)[O-])cc4)o3)n2)C(C)(C)C1 | inactive: > 100 µM
43 | COC(=O)C(=O)C(C(=O)C(=O)Nc1cc(C)ccc1C)c1nc2ccccc2nc1O (centres undefined) | inactive: > 100 µM
44 | CCOC(OC1=C(C#N)CCC1)C(C)[Se]c1ccccc1 (centres undefined) | inactive: > 100 µM
45 | O=C1C2=C(C3=NCCc4c[nH]c1c43)C1(C=C(Br)C(O)C(Br)=C1)CCN2 (centres undefined) | inactive: 2.1 µM
46 | CC[N+](C)(CC)Cc1ccccc1[N+](=O)[O-] | inactive: > 100 µM
47 | CCN(CC)C(=O)COc1cc2c(O)c3c(O)c(C)c4c(c13)C(=O)C(C)(OC=CC(OC)C(C)C(OC(C)=O)C(C)C(O)C(C)C(O)C(C)C=CC=C(C)C(=O)N2)O4 (centres undefined) | inactive: > 100 µM
48 | COc1ccc2c(c1)-c1c(c3ccccc3n1CCN1CCCCC1)CC2 | inactive: 14 µM

Row | SMILES | GI50
49 | CCCCCCCCCCCCCC(=O)OCC1OC(OC)C(NC(=O)N(CCCl)N=O)C(O)C1O (centres undefined) | inactive: 21.3 µM
50 | CC12CP(=O)(c3ccccc3)CC1c1ccccc1C2c1ccccc1 (centres undefined) | inactive: 74.8 µM
51 | Cn1c(=O)c2[nH]cnc2n(CC(=O)O)c1=O | inactive: > 100 µM
52 | CN(C)c1ccc(/C=C/c2ccnc3ccccc23)cc1N | inactive: 17.1 µM
53 | CC[N+]1(C)CCC(O)(/C=C/c2ccc(OC)cc2)C(C(=O)/C=C/c2ccc(OC)cc2)C1 (centres undefined) | inactive: 18.1 µM
54 | S=C(S)N1CCN(c2cccc(Cl)c2)CC1 | inactive: > 100 µM
55 | Cc1nnc2n1N=C(c1ccccc1)/C(=C/c1ccc(-c3ccc(Cl)cc3)o1)S2 | inactive: 16.7 µM
56 | CN(C)c1nc(N)c(C#N)c(C#N)c1C#N | inactive: > 10 µM
57 | CO/N=[N+](\[O-])NC(C)C | inactive: > 100 µM
58 | CCOC(=O)C1N(S(=O)(=O)c2ccc(C)cc2)CCC12C(c1ccc(OC)c(OC)c1)=Nc1ccccc12 (centres undefined) | inactive: > 100 µM
59 | Cc1ccc(NC(=O)/C(Cc2nc3ccc([N+](=O)[O-])cc3nc2O)=N\NC(=O)C[n+]2ccccc2)c(C)c1 | inactive: 81.8 µM
60 | CC(=O)NC(CS/N=N/c1[nH]cnc1C(N)=O)C(=O)O (centres undefined) | inactive: > 42.6 µM
61 | CC/C=C\C/C=C\C/C=C\CCCCCCCC(=O)OC(COC(=O)CCCCCCCCCCCCCCCCC)COC1OC(CO)C(O)C(O)C1O (centres undefined) | inactive: > 25 µM
62 | COC(=O)c1nc(Cl)nc(Cl)c1Cl | inactive: 44.5 µM
63 | NCCC1(N)CCNCC1 | inactive: > 100 µM
64 | Cc1n[nH]c(=O)n1/N=C/c1cccs1 | inactive: > 100 µM
65 | CC(C)(C)C(=O)C(C(c1ccccc1)N1CCOCC1)N1CCOCC1 (centres undefined) | inactive: > 100 µM
66 | Cc1ccc(NC(=O)C(=O)CC(=O)c2ccccc2)cc1C | inactive: > 100 µM
67 | O=C(NNc1nc(-c2ccccc2)cs1)C(F)(F)F | inactive: 62.7 µM
68 | CCOC(=O)c1csc(NC(=O)CCN2CCCCC2)n1 | inactive: > 100 µM
69 | CC(C)CCOC(=O)NC(Nc1ccc(F)cc1)(C(F)(F)F)C(F)(F)F | inactive: 61.2 µM
70 | O=C1C=C(Nc2ccccc2C(=O)CC(=O)C(=O)Nc2cccc(C(F)(F)F)c2)c2ccccc2C1=O | inactive: 46.3 µM
71 | Nc1nn2c(nc(N)c3c(N)n[nH]c32)c1/N=N\c1ccc(Br)cc1 | inactive: 29.5 µM
72 | CNc1nc(C(N)=O)c(N)s1 | inactive: > 100 µM

Row | SMILES | GI50
73 | OC(c1ccsc1)c1cc2ccccc2s1 (centres undefined) | inactive: > 10 µM
74 | CCC1(CC)C(=O)N(C(=O)c2cc(OC)c(OC)c(OC)c2)N(C(=O)c2cc(OC)c(OC)c(OC)c2)C1=O | inactive: > 50 µM
75 | Fc1c(F)c(C(F)(F)F)c(F)c(F)c1N/N=C\c1c[nH]c2ccccc12 | inactive: 5.7 µM
76 | O=C(O)c1nc2ccc(C(F)(F)F)cc2nc1NCc1ccc(Cl)c(Cl)c1 | inactive: 19.1 µM
77 | CCOC(=O)c1cc(-c2ccc([N+](=O)[O-])cc2)c([N+](=O)[O-])[nH]1 | inactive: > 10 µM
78 | CCOC(=O)C(C(=O)OCC)=c1sc(=C(C(=O)OCC)C(=O)OCC)s1 | inactive: > 100 µM
79 | C=C(COC(=O)C(C)C)[C@H]1Oc2ccc(C(C)=O)cc2[C@@H]1OC(=O)C(C)C | inactive: > 100 µM
80 | SC[C@@H]1COC[C@H](CS)S1 | inactive: > 100 µM
81 | C=CC[P@]1(=O)O[C@H](c2ccccc2)C(C)N1C(C)C (some centres undefined) | inactive: > 100 µM
82 | CCCC(=O)OC[n+]1ccc(-c2c(COC(=O)NC(C)C)c(COC(=O)NC(C)C)c3n2CCC3)cc1 | inactive: > 100 µM
83 | CC(CO)CCNc1ncnc2c1ncn2CCC(=O)OC(C)(C)C (centres undefined) | inactive: > 100 µM
84 | COc1cc(/C=C/c2csnn2)cc(OC)c1OC | inactive: > 100 µM
85 | COC(=O)C1=CCC2c3[nH]c4ccccc4c3CCN2C1 (centres undefined) | inactive: > 354 µM
86 | CC(C)(C)O/N=C/c1cc(NC(=S)c2ccccc2)ccc1Cl | inactive: 25.3 µM
87 | CC1=C(NC(=O)/C(=N/NC(=S)NN)C2C(=O)CC(C)(C)CC2=O)C(=O)c2ccccc2C1=O | inactive: 17.7 µM
88 | COC1=NN2C(OC)(c3ccccc3)c3c(-c4ccccc4)sc(-c4ccccc4)c3C2(c2ccccc2)S1 (centres undefined) | inactive: > 100 µM
89 | CCOC(=O)c1cc(/C=C/C(C)=C/C(=O)OC)oc1C | inactive: > 100 µM
90 | COc1ccc(N2C(=O)C(=O)N(c3ccc(/N=N\c4ccccc4)cc3)C2=S)cc1 | inactive: 23.2 µM
91 | Nc1ncc2c(n1)-c1ccccc1OC2N1CCCCC1 (centres undefined) | inactive: > 100 µM
92 | Cc1cc(C)n(-c2nsc3ccccc23)n1 | inactive: > 100 µM
93 | CC1(C)C2CCC1(CC(=O)O)C(Cl)C2 (centres undefined) | inactive: > 100 µM
94 | Nc1ncnc2c1ccn2CC=C(CO)CO | inactive: > 100 µM

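These data come from cells grown in 96-well plates and exposed to compound for 48 hours at five concentrations. Abbreviation: GI50, concentration required for 50% inhibition of growth.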 Activity calls are given as the source filed them. Rule as the data show it: active = GI50 up to about 1.1 µM and inactive = higher.
